Assay results as given in PubChem BioAssay (NCATS).
The inconclusive results got no clear call from the source; some entries with a clear call stand among them for comparison. For some assays here: Potencies beside an inconclusive call are fits to weak or partial responses and may not hold up. The source made the active and inactive calls. Unless noted, the call rests on the fitted dose curve; in most records, active means well fitted curve in the direction sought with a large enough effect; inconclusive means small, poorly fitted or top-dose-only effect, or another doubt; inactive means no such curve, though single readings can be large; an effect the other way counts as inactive or inconclusive.

How the values were obtained:
Furin (Homo sapiens) = Furin (Homo sapiens) (UniProt P09958); experiment: Furin counterscreen qHTS for Zika virus inhibitors (AID 1347149); settings: furin enzymatic counterscreen, fluorogenic substrate; activity change, negative = inhibition: at 57.5 µM (top of the series); further: potency means the concentration at half of the fitted maximal effect; nearly all actives have a fitted effect of over 70% in size
How it was run: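 Counterscreen measures cleavage of 2 microM BOC-RVRR-AMC, below its ~15 microM Km, by 5 nM full-length human furin at pH 7.0 after a 15-min compound preincubation. Inhibition derives from the 15-min fluorescence increase at 37C.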

[1] = ZIKV-mCherry secondary qHTS for Zika virus inhibitors (AID 1347158); further: potency means the concentration at half of the fitted maximal effect
How it was run: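 This orthogonal imaging screen measured ZIKV-mCherry infection of Vero cells exposed to compound, MOI 1, 48-72 h. Percent infection came from segmented nuclei scored mCherry-positive above 3 SD of negative controls.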

[2] = tested on: Zika virus NS2B-NS3 protease (unlinked complex); experiment: Primary screen GU Rhodamine qHTS for Zika virus inhibitors: Unlinked NS2B-NS3 protease assay (AID 1347159); further: potency means the concentration at half of the fitted maximal effect; nearly all actives have a fitted effect of over 60% in size
How it was run: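 Enzyme 25 nM in Tris-HCl pH 8.0 + 0.01% Tween 20; compounds up to 114 microM, 15 min RT dark; + Rhod110 substrate 1.5 microM; read t0 and 15 min; delta fluorescence → % inhibition → 4-parameter Hill fit.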

[3] = tested on: Zika virus NS2B-NS3 protease (linked construct); experiment: Primary screen NINDS Rhodamine qHTS for Zika virus inhibitors (AID 1347160); settings: activity change, negative = inhibition: at 57.1 µM (top of the series) unless noted; further: potency means the concentration at half of the fitted maximal effect; nearly all actives have a fitted effect of over 55% in size
How it was run: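 Enzyme (25 nM, linked NS2B-NS3) was preincubated 15 min with compound in 10 mM Tris-HCl pH 8.0, 0.01% Tween 20. Rhodamine110 substrate (1.5 microM) was then added and fluorescence read at start and after 15 min.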

[4] = Tertiary RLuc qRT-PCR qHTS assay for Zika virus inhibitors (AID 1347169); further: potency means the concentration at half of the fitted maximal effect; nearly all actives have a fitted effect of over 55% in size
How it was run: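 Luminescence read-out: live-cell Renilla luciferase substrate applied to infected Vero cells, signal measured after 1-1.5 hrs. Cells had received compound before ZIKV-RLuc (Cambodian strain, MOI 1-2) infection and were incubated 48-72 hrs at 37 degrees C.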

[5] = target: Cytochrome P450 2D6 (Homo sapiens) (UniProt P10635); experiment: Cytochrome P450 family 2 subfamily D member 6 (CYP2D6) small molecule antagonists: luciferase biochemical (cell-free) qHTS assay (AID 1645840; active means well fitted curve in the direction sought with a large enough effect in the repeat runs; inconclusive means weak or mixed curves; inactive means no such curve, though single readings can be large; an effect the other way counts as inactive or inconclusive; further: potency means the concentration at half of the fitted maximal effect; nearly all actives have a fitted effect of over 55% in size)
How it was run: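 P450-Glo CYP2D6 system: proluciferin substrate converted by enzyme to luciferin, read by luminescence proportional to activity. Enzyme-substrate mix with compound 10 min at room temperature, then NADPH regeneration 1 h before detection reagent.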

[6] = Primary qHTS for inhibitors of nuclear receptor binding SET domain protein 2 (NSD2) in an isogenic RCH-ACV NSD2 p.E1099K mutant (9B) (AID 1645876); further: potency means the concentration at half of the fitted maximal effect; nearly all actives have a fitted effect of over 70% in size
[7] = Primary qHTS for inhibitors of nuclear receptor binding SET domain protein 2 (NSD2) in an RCH-ACV wild type WT cells (2C) (AID 1645877); settings: activity change, negative = cell killing: at 44.9 µM (top of the series) unless noted; further: nearly all actives have a fitted effect of over 70% in size; further: potency means the concentration at half of the fitted maximal effect; on activity change, negative = cell killing: on the % scale 0 is the no-effect control and ±100 the full control effect
[8] = target: Phospholipid hydroperoxide glutathione peroxidase GPX4 (Homo sapiens) (UniProt P36969); experiment: Primary qHTS Assay for Inhibitors of Recombinant Selenoprotein Glutathione Peroxidase 4 (GPX4) (AID 1845192); further: nearly all actives have a fitted effect of over 65% in size; further: potency means the concentration at half of the fitted maximal effect; on activity change, negative = inhibition: on the % scale 0 is the no-effect control and ±100 the full control effect
How it was run: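 NADPH consumption followed by fluorescence at 340/450 nm, t=0 and after 15 min at room temperature. Reaction started with cumene hydroperoxide (0.5 mM final) after 30 min compound–GPX4 preincubation; final 200 nM GPX4, 100 nM GR, 1 mM GSH, 0.5 mM NADPH.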

[9] = target: Luciferin 4-monooxygenase (Photinus pyralis) (UniProt P08659); experiment: Primary firefly luciferase (FLuc) qHTS assay for identification of artifact compounds. (AID 1845220); further: potency means the concentration at half of the fitted maximal effect; nearly all actives have a fitted effect of over 60% in size
How it was run: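 FLuc 10 nM; luciferin 10 uM; ATP 10 uM; Tris-acetate pH 7.6, Mg-acetate 10 mM; 15 min RT preincubation; 5 min reaction; luminescence.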

[10] = Primary fluorescence-based thiol-reactive (MSTI) qHTS assay for identification of artifact compounds. (AID 1845221);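 further: thiol-reactive compounds lower the probe fluorescence signal; nearly all actives have a fitted effect of over 65% in size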
How it was run: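 qHTS titration of compound; 4 uM MSTI, PBS pH 7.4, 2% DMSO; 1 h RT, dark; fluorescence 525/598 nm; normalized to Acetyl-MSTI and MSTI; 4-parameter Hill fit.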

[11] = Primary redox qHTS assay for identification of artifact compounds. (AID 1845223); settings: Amplex Red/HRP redox cycling with DTT, fluorescence; redox activity (% of DA3003): at 53.8 µM (top of the series); further: potency means the concentration at half of the fitted maximal effect
How it was run: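 Redox-cycling detection via DTT (250 uM final) oxidation coupled to Amplex Red (25 uM)/HRP (250 mU/mL) in HBSS. 15 min preincubation plus 30 min after DTT, room temperature. Ex/Em 525/598 nm; 4-parameter Hill fit against DMSO and 10 uM DA3003.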

HEK293 = experiment: Cytotoxic Profiling of Annotated Libraries Using Quantitative High-Throughput Screening (AID 1296008); settings: Five cell lines viability, CellTiter-Glo ATP luminescence, 48-72 h; max response: stronger effect = lower value; further: nearly all actives have a fitted effect of over 60% in size; on max response: on the % scale 0 is the no-effect control and ±100 the full control effect
How it was run: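 Cytotoxicity was measured as CellTiter-Glo ATP luminescence, read after 10 min at room temperature. Compound treatment of the cells lasted 48 or 72 hr at 37 degrees Celsius in a qHTS format.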
Tags describe the fitted curve by direction and shape.

Chain of UniProt P36969 (P36969 whole entry, looked up): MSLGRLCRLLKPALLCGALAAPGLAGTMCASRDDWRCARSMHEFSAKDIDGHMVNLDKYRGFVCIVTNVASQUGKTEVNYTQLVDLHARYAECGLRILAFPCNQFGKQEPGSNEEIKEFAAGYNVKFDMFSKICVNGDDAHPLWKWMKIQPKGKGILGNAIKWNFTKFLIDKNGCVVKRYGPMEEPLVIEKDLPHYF
Chain of UniProt P10635 (P10635 whole entry, looked up): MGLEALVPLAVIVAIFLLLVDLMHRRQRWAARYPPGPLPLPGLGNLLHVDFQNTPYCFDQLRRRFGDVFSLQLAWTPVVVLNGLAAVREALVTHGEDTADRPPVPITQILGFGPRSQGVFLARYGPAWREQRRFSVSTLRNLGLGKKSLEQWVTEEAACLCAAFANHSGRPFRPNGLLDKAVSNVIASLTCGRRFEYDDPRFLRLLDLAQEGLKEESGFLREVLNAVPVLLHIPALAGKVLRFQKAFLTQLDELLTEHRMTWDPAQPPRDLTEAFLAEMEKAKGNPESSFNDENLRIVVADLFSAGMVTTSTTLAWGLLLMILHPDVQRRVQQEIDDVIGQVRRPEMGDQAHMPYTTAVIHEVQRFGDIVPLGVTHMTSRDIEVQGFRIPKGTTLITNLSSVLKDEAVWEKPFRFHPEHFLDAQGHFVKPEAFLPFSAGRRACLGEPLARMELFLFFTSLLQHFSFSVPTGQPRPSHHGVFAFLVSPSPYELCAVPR
Chain of UniProt P09958 (P09958 whole entry, looked up): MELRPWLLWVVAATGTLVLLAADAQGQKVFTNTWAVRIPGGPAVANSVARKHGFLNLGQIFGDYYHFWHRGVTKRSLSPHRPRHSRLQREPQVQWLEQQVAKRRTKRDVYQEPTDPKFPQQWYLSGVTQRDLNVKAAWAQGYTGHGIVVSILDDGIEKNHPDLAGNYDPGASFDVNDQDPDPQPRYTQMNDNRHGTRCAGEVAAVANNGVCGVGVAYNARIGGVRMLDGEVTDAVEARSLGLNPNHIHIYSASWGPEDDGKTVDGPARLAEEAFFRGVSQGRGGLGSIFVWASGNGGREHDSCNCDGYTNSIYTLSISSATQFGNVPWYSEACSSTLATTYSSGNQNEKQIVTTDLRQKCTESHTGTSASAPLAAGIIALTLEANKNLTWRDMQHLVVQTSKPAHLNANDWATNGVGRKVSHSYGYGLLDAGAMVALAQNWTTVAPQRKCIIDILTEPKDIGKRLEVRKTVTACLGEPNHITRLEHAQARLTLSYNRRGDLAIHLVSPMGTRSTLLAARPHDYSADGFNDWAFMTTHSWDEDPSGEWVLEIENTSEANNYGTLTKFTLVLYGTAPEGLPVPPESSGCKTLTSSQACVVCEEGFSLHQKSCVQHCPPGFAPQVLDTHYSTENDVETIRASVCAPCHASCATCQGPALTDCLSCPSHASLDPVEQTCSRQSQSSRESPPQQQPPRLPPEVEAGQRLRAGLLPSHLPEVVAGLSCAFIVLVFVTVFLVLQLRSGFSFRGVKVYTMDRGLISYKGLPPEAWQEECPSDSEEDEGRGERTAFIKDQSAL

O=C(O)c1ccc(CCCc2ccc(OCCc3ccc(F)cc3)cc2)o1
inconclusive: Potency (Furin (Homo sapiens)) 87.9 µM [inhibitor, single point] | Potency [1] 12.6 µM [inhibitor, partial curve, poor fit] | Potency [4] 18.6 µM [inhibitor, partial curve] | Potency [5] 21.3 µM [inhibitor, single point] | Potency [6] 29.5 µM [inhibitor, single point] | Potency [7] 37.2 µM [inhibitor, partial curve, poor fit] | Potency [9] 37.9 µM [inhibitor, single point] | Potency [11] 11.9 µM [activator, partial curve, poor fit]
inactive: Potency [10] | outcome (HEK293)
active: Potency [2] 4.47 µM | Potency [3] 3.98 µM | Potency [8] 16.1 µM

C[C@H]1CC[C@@]2(OC1)O[C@H]1CC3C4CC[C@H]5C[C@@H](O)CC[C@]5(C)C4CC(=O)[C@]3(C)[C@H]1[C@@H]2C (some centres not stated)
inactive: Potency [7] | Potency [8] | max response (HEK293) -2.47%
inconclusive: Potency [2] 7.08 µM [inhibitor, full curve, poor fit]
